± gives the standard deviation. The full ranking holds about 5,500 sequences; the median of “pre-steady-state target cleavage rate” is about 0.1, and the highest 2% start at about 0.64. The list shows a part of the results, in another mix than the full data.
System: MIWI (PIWIL1) piRISC loaded with piRNA #2 (30 nt)
Test: pre-steady-state target cleavage rate (min^-1); MIWI and MILI are mouse PIWI proteins and EfPiwi is from a freshwater sponge; tags in brackets are library labels; higher = faster piRNA-guided slicing of the target
Details: guide: piRNA #2 5'p-UUAGGUAACCCAGUAGAUCCAGAGGAAUUC; auxiliary factor: 500 nM mouse GTSF1
Procedure: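 Cleave-'n-Seq: a library of target RNAs (target site embedded in constant flanks, ACAGCATTCCGCGTTAGTGATATCCG... 5' flank; DNA-blocked outside the site) at 0.1 nM was incubated with 1 nM active mouse MILI or MIWI piRISC (synthetic 5'-monophosphorylated piRNA guide) with or without 500 nM mouse GTSF1 at 33 °C for 1 min to 16 h. Uncleaved targets were sequenced and normalised to non-target controls, and the pooled three trials were fitted to a burst-and-steady-state model to give the pre-steady-state cleavage rate (min^-1; k3 is constrained to at most 1e-4). Sequence is the target site only; target names encode pairing extent (gX:gY) and contiguous / 1-mismatch / 2-mismatch / bulge geometry. Fits with R² ≤ 0 are excluded.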

Sequence	pre-steady-state target cleavage rate
CUUAACCUCUGGAUCAACUGGGUUAGCUAA	0.0963 ± 0.014
CUUAUCCACUGGAUCUACUGGCUUACCUAA	0.0551 ± 0.013
CUUAUCCUCUGGAUCUUCUGGGUUUCCUAA	0.111 ± 0.031
CAAUGCCUCUGGAUCUACUGGGUUACCUAA	0.309 ± 0.044
GAAUUCCUCUGGAUCUACAUGGGUUACCUAA	0.00473 ± 0.0037
CUUAAGGUCUGGAUCUACUGGGUAUCCUAA	0.0627 ± 0.017
CUUAAGGUCUCGAUCUACUGGCUUACCUAA	0.0846 ± 0.023
CUUUUCCUCUGGUUGUACUGGGUUACCUAA	0.531 ± 0.038
CUUAUCGUCUGGAUCUACUGGGAUACCUAA	0.285 ± 0.043
CUUAUCCUGCUGGAUCUACUGGGUUACCUAA	0.524 ± 0.072
CUUAAGGAGUGGAUCUACAGGGUUACGUAA	0.0493 ± 0.011
CUAUUCCUUUGGAUCUACUGGGUUACCUAA	0.56 ± 0.054
GAAUACCUCUGGUUCUACUGGGUUACCUAA	0.59 ± 0.052
CAAUUCCUCUGGAUCUUACUGGGUUACCUAA	0.0053 ± 0.0043
CUUAAGCUCUGGAUCUACUGGGAUUACCUAA	0.0208 ± 0.0063
CUAUUCCUCAGGAUCUACAGGGUUACCUAA	0.265 ± 0.027
CAAUUGCUCUGCAUCUACUGGGUUACCUAA	0.386 ± 0.055
CUUUUCCUCUGGAUCUACUGGGUUAUCCUAA	0.56 ± 0.07
CUUAACCUCUGGAUCAACUGGGUUACCUAA	0.221 ± 0.026
GAAUUGCUCUGGAACUACUGGGUUACCUAA	0.0998 ± 0.028
CUUAAGGACUGGAUCUACUGGGUCUACCUAA	0.0638 ± 0.033
CUUUUCCUCUGGAUCUACUCCGUUACCUAA	0.0234 ± 0.0069
CUUAAGGAGACCUAGUACAGCGUUACCUAA	0.0042 ± 0.0016
CAAUUGCUCUGGAUCUACUGGGAUACCUAA	0.238 ± 0.037

Sequence	pre-steady-state target cleavage rate
CAAUUCCUCUGCAUCUACUGGGUUUCCUAA	0.285 ± 0.083
GAAUUCCUCUGAUCUACUGGGUUACCUAA	0.454 ± 0.062
CUUGUCCUCUGGAUCUACUGGGUUACCUAA	0.247 ± 0.035
CUAUUCCUCUCGAACUACUGGGUUACCUAA	0.474 ± 0.038
CUUAAGGAGUGGAUCUACUGGGUUACCAUAA	0.0177 ± 0.011
CUUUUCCUCUGGAUCUACUGGGUUACCUAU [g2:g27:cont:t1U]	0.371 ± 0.051
CUAUUCCUCUGAUCUACUGGGUUACCUAA	0.395 ± 0.048
CUUAAGGACUGGAUCUACUGGGUUACACUAA	0.211 ± 0.071
CUUAAGGUCUGGUUCUACUGGGUUACGUAA	0.296 ± 0.037
CAAUUCCUCUGGAUCUACUGGGUUACCUUA	0.425 ± 0.066
CAAUUCCUCUGGAUCUACUGCGUUACCAAA	0.434 ± 0.097
CUUAAGGUUCUGGAUCUACUGGGUUACCUAA	0.127 ± 0.015
CUUAUCCUCUGGAUCUUGUGGGUUACCUAA	0.00506 ± 0.0026
GAAUUCCUCUGCAUCUACUGGGUUACGUAA	0.497 ± 0.038
CUUUUCCUCUGGAACUACUGGGUUACCUAA	0.447 ± 0.032
CUUAUCCUCUGGAUCUACGGGUUACCUAA	0.0503 ± 0.0077
CUUAAGGACUGGAUGUACAGGGUUACCUAA	0.0401 ± 0.024
CUUAAGCUCUGGAUCUACAGGGUUACCAAA	0.102 ± 0.013
CUUAACCUCUGGAUCUAGUGCGUUACCUAA	0.0345 ± 0.007
GAAUUCCUCUGGUCUACUGGGUUACCUAA	0.301 ± 0.059
CUUUACCUCUGGAUCUUCUGGGUUACCUAA	0.261 ± 0.035
CUUAUCCUCUGGAUCUACUCGGAUACCUAA	0.0144 ± 0.0094
GAAAUCCUCUGGAACUACUGGGUUACCUAA	0.253 ± 0.041
CUUACCCUCUGGAUCUACUGGGUUACCUAA	0.324 ± 0.032

Sequence	pre-steady-state target cleavage rate
CAAUUCCUCUGUGAUCUACUGGGUUACCUAA	0.507 ± 0.032
GCAAUUCCUCUGGAUCUACUGGGUUACCUAA	0.202 ± 0.042
CAAUUCCUCUGGUAUCUACUGGGUUACCUAA	0.548 ± 0.083
CUUAAGCUCUGGAUCUACUGGGUGACCUAA	0.081 ± 0.011
CUAUUCGUCUGGAUGUACUGGGUUACCUAA	0.0594 ± 0.033
CUUAAGGAGUGGAUCUACUGGGUUACCUAG [g2:g21:cont:t1G]	0.0565 ± 0.01
GAAUUCCUCUGAAUCUACUGGGUUACCUAA	0.306 ± 0.055
CUUAUCCUCUGGAUCUAGUCGGUUACCUAA	0.00661 ± 0.004
CUUAUCCUGUGGAUCUACUGGGUUACCUUA	0.307 ± 0.049
CAAUUCCUCUGGAUCUACUGGGUUUGCUAA	0.323 ± 0.073
CUUUUCCUCUGGACUACUGGGUUACCUAA	0.25 ± 0.03
CUUUUCGUCUGCAUCUACUGGGUUACCUAA	0.394 ± 0.033
CUAUUCCUCUGGAUGUACUGGGUUUCCUAA	0.486 ± 0.12
CUUAUCCUCUGGAUCUAGUGGCUUACCUAA	0.00764 ± 0.0042
GAAUAUCCUCUGGAUCUACUGGGUUACCUAA	0.109 ± 0.044
CUAUUCCUCUGGAUCAACUGGGUUACCAAA	0.365 ± 0.053
CUUAUCCUCAUGGAUCUACUGGGUUACCUAA	0.486 ± 0.057
CUUAAGGUCUGGAUCUACUGGGUUUCCUUA	0.0461 ± 0.011
CAAUUCCUCUGGAUUCUACUGGGUUACCUAA	0.473 ± 0.059
CUUAAGGACUGGAUAUACUGGGUUACCUAA	0.129 ± 0.061
CUUAUCCUCUGGAUCUACUGGGUUAGCAAA	0.301 ± 0.073
CUUAAGGACUGGAUCUACUGGGUUACCUCA	0.0791 ± 0.038
GAAUUCCUCUGGAUCUACUGGGAUACCUUA	0.163 ± 0.047
GAAUACCUCUGGAUCUACUGGGUUAGCUAA	0.615 ± 0.052

Source: the supplement of paper PMC10338343
